{"source": "patent US12414980B2", "about": "“Pharmaceutical composition comprising RUNX3 protein and CDK4 inhibitor or mTOR inhibitor cotreatment for prevention or treatment of cancer” (GeneCraft Inc., priority 2020, dated 2025)", "system": "MKN28 stomach cancer cell line", "details": "administered simultaneously with adenovirus expressing Runx3 protein, FIG. 8", "data": [{"compound": "CC(=O)c1c(C)c2cnc(Nc3ccc(N4CCNCC4)cn3)nc2n(C2CCCC2)c1=O", "note": "[PD0332991]", "values": [{"measurement": "cancer apoptotic effect versus adenovirus expressing Runx3 protein alone", "value": "significantly increased"}]}, {"compound": "CO[C@H]1C[C@@H]2CC[C@@H](C)[C@@](O)(O2)C(=O)C(=O)N2CCCC[C@H]2C(=O)O[C@H]([C@H](C)C[C@@H]2CC[C@@H](O)[C@H](OC)C2)CC(=O)[C@H](C)/C=C(\\C)[C@@H](O)[C@@H](OC)C(=O)[C@H](C)C[C@H](C)/C=C/C=C/C=C/1C", "note": "[rapamycin]", "values": [{"measurement": "cancer apoptotic effect versus adenovirus expressing Runx3 protein alone", "value": "significantly increased"}]}]}
